# Assay results: PubChem BioAssay (Tox21)
# “And” between values parts separate entries of the source, which are not always exact repeats. Equal values may be shown once. This list was built around the results that the source calls inconclusive (neither active nor inactive); the mix of calls is not that of the screen. Where the call is inconclusive, the potency comes from a doubtful curve fit. The source made the active and inactive calls. Unless noted, calls come from the whole dose curve; as a rule, active = well fitted curve in the direction sought with a large enough effect in the repeat runs; inconclusive = weak or mixed curves; inactive = no such curve, though single readings can be large; an effect the other way counts as inactive or inconclusive.
# Tests used:
# [1] = qHTS assay to identify small molecule antagonists of the androgen receptor (AR) signaling pathway using the MDA cell line in the presence of 0.5 nM R1881 - cell viability counter screen (AID 1259242); note: nearly all actives have a fitted effect of over 45% in size
# Outline: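 Cells seeded at 3,000/well and allowed 5 hr at 37C, 0% CO2 before compound transfer and R1881 (0.5 nM final) addition; 16 hr later, live-cell protease fluorescence indicated cytotoxicity.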
# [2] = biological target: Androgen receptor (Homo sapiens) (UniProt P10275); assay: qHTS assay to identify small molecule antagonists of the androgen receptor (AR) signaling pathway using the MDA cell line in the presence of 0.5 nM R1881 (AID 1259243); note: nearly all actives have a fitted effect of over 50% in size
# Outline: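 Luminescence from an AR/GR-responsive MMTV-luciferase construct in MDA-kb2 breast carcinoma cells, read 30 min after ONE-Glo, following 16 hr co-treatment with compounds and 0.5 nM R1881.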
# [3] = qHTS assay to identify small molecule HDAC inhibitors - cell viability counter screen (AID 1259365); note: nearly all actives have a fitted effect of over 50% in size
# Outline: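 Measured quantity is CellTiter-Glo luminescence from wild-type HCT-116 cells after compound incubation of 2hr at 37C, 5% CO2; reagent developed 30min at room temperature.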
# [4] = qHTS assay to identify small molecule antagonists of the sonic hedgehog signaling (Shh) pathway - cell viability counter screen (AID 1259367); note: nearly all actives have a fitted effect of over 55% in size
# Outline: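 Fluorescence read-out (CellTiter-Fluor, 1 hr at 37C) taken after 23 hr compound treatment of 3T3 Gli1-Luc cells stimulated with conditioned medium. Cells were seeded at 2,000 per well and pre-incubated 4 hr.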
# [5] = qHTS assay to identify small molecule agonists of the sonic hedgehog signaling (Shh) pathway (AID 1259368; calls by dose curve; note: nearly all actives have a fitted effect of over 15% in size)
# Outline: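 Following a 24 hr incubation with DMSO-dissolved compounds at 37 C, 5% CO2, Gli1-Luc NIH/3T3-derived cells received luciferase reagent for 30 min at room temperature prior to luminescence measurement.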
# [6] = qHTS assay to identify small molecule antagonists of the sonic hedgehog signaling (Shh) pathway (AID 1259369; calls by dose curve; note: nearly all actives have a fitted effect of over 45% in size)
# Outline: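 Read-out is luminescence from a firefly luciferase gene controlled by the Gli1 response element, in 3T3Gli1-Luc cells pre-incubated 4hr then exposed to compounds and conditioned medium for 24hr.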
# [7] = biological target: Estrogen receptor (Homo sapiens) (UniProt P03372); assay: qHTS assay to identify small molecule antagonists of the estrogen receptor alpha (ER-alpha) signaling pathway using the BG1 cell line in the presence of 0.1 nM 17-beta-estradiol (AID 1259244); note: nearly all actives have a fitted effect of over 50% in size
# Outline: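 Luciferase signal from VM7Luc4E2 ERE-reporter cells, co-dosed with test compound and 0.1 nM final 17beta-estradiol for 22 h, read with ONE-Glo.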
# [8] = qHTS assay to identify small molecule agonists of the sonic hedgehog signaling (Shh) pathway - cell viability counter screen (AID 1259366); note: nearly all actives have a fitted effect of over 50% in size
# Outline: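 In quantitative high-throughput format, 3T3 Gli1-Luc cells were exposed to compounds for 24hr and multiplexed for viability using CellTiter-Fluor, incubated 1hr at 37C before the fluorescence read.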
# [9] = qHTS assay to identify small molecule HDAC inhibitors (AID 1259364);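 note: wild-type HCT-116 cells with endogenous class I/II HDAC activity; nearly all actives have a fitted effect of over 45% in size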
# Outline: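 HCT-116 wt cells, 1,500/well, overnight attach. Compounds (DMSO) 2 h, 37 °C. HDAC-Glo I/II, 30 min RT. Luminescence.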
# Potency is the fitted concentration of half-maximal effect; tags give direction and shape of the fitted curve.
# UniProt P03372, sequence (P03372 whole entry, looked up): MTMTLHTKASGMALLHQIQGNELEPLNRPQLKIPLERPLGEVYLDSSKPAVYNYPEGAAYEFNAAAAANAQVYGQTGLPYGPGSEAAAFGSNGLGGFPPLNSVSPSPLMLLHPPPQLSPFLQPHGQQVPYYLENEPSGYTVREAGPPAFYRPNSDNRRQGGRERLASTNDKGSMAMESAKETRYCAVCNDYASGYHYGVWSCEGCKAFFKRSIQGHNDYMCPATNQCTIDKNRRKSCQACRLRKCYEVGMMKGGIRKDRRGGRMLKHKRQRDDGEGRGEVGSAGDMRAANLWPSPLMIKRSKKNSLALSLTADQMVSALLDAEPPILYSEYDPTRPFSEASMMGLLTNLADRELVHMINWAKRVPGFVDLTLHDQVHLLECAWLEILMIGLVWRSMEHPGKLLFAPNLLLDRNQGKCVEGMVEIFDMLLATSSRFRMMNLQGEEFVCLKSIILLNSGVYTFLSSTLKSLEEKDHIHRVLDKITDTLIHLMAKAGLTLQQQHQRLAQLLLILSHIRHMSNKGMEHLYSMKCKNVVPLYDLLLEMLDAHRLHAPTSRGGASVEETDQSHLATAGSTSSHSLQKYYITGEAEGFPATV
# UniProt P10275, sequence (P10275 whole entry, looked up): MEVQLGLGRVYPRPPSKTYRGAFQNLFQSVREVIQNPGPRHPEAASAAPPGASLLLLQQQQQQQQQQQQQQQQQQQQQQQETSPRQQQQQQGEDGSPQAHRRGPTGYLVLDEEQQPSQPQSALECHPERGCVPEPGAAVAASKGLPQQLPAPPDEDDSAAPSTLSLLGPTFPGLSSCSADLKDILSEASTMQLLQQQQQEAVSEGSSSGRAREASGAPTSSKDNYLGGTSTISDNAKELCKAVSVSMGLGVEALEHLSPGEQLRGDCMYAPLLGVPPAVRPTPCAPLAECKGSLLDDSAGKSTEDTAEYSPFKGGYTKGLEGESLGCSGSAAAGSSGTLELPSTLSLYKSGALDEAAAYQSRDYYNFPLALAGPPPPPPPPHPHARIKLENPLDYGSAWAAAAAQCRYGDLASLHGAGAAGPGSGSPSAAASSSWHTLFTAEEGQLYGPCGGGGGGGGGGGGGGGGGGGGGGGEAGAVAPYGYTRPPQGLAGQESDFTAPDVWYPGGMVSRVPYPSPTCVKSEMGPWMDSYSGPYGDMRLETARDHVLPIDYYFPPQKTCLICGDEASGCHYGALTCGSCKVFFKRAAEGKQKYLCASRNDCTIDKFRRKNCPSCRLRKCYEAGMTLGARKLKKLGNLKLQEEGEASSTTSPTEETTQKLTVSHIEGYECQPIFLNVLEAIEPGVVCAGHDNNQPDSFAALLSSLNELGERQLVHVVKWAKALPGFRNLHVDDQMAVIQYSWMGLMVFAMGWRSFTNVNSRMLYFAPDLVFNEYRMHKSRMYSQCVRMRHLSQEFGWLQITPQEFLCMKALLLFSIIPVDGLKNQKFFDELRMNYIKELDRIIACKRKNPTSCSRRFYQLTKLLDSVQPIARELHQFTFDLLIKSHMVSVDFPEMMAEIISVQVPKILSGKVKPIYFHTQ
structure (smiles),measurement,setting,value
C[C@H]1C[C@H](O)c2ccsc2S1(=O)=O,Potency,[1],inactive
O=C(Nc1ncc([N+](=O)[O-])s1)c1cccs1,Potency,[1],"inconclusive: 26.6 µM [cytotoxic, partial curve]"
same,Potency,[2],"inconclusive: 33.5 µM [inhibitor, single point]"
same,Potency,[3],"inconclusive: 21.1 µM [cytotoxic, partial curve]"
same,Potency,[4],"inconclusive: 29.8 µM [cytotoxic, partial curve, poor fit]"
same,Potency,[5],"inconclusive: 11.9 µM [activator, partial curve]"
CO[C@H]1C=CO[C@@]2(C)Oc3c(C)c(O)c4c(O)c(cc(O)c4c3C2=O)NC(=O)/C(C)=C\C=C/[C@H](C)[C@H](O)[C@@H](C)[C@@H](O)[C@@H](C)[C@H](OC(C)=O)[C@@H]1C,Potency,[1],"inconclusive: 54.9 µM [cytotoxic, partial curve]"
CN1CCCN(C(c2ccccc2)c2ccc(Cl)cc2)CC1 (configuration not stated),Potency,[1],"inconclusive: 29.8 µM [cytotoxic, single point]"
same,Potency,[2],"inconclusive: 33.5 µM [inhibitor, single point]"
same,Potency,[6],active: 5.96 µM
COc1cc(C=C2CCC/C(=C\c3ccc(O)c(OC)c3)C2=O)ccc1O,Potency,[1],"inconclusive: 26.6 µM [cytotoxic, partial curve]"
same,Potency,[7],"inconclusive: 33.5 µM [inhibitor, single point]"
same,Potency,[8],"inconclusive: 29.8 µM [cytotoxic, partial curve]"
same,Potency,[6],"inconclusive: 1.06 µM [inhibitor, full curve]"
C#CCN(C)Cc1ccccc1,Potency,[1],inactive
Clc1sc(Cl)c(Cl)c1Cl,Potency,[1],inactive
CCCCCCCCCCCCCC[n+]1ccccc1,Potency,[1],active: 24.3 µM
COc1ccc(OC(F)(F)F)cc1CN[C@H]1CCCN[C@H]1c1ccccc1,Potency,[1],active: 48.6 µM
Cc1c(O)cccc1C(=O)N[C@@H](CSc1ccccc1)[C@H](O)CN1C[C@H]2CCCC[C@H]2C[C@H]1C(=O)NC(C)(C)C,Potency,[1],active: 59.5 µM and active: 26.6 µM
same,Potency,[2],"inconclusive: 66.8 µM [inhibitor, single point]"
same,Potency,[4],active: 2.37 µM and active: 3.76 µM
CC(=O)[C@]1(O)Cc2c(O)c3c(c(O)c2[C@@H](O[C@H]2C[C@H](N)[C@H](O)[C@H](C)O2)C1)C(=O)c1ccccc1C3=O,Potency,[1],"inconclusive: 11.9 µM [cytotoxic, partial curve]"
same,Potency,[2],active: 0.531 µM
same,Potency,[4],active: 1.19 µM
O=c1[nH]c2ccc(Cl)cc2o1,Potency,[1],inactive
CC(CC1c2ccccc2CCc2ccccc21)CN(C)C (configuration not stated),Potency,[1],"inconclusive: 33.5 µM [cytotoxic, single point]"
same,Potency,[7],"inconclusive: 33.5 µM [inhibitor, single point]"
same,Potency,[6],"inconclusive: 13.3 µM [inhibitor, single point]"
O=C(Nc1cccc([N+](=O)[O-])c1)c1cc2ccccc2cc1O,Potency,[1],active: 6.86 µM
same,Potency,[7],active: 5.45 µM
same,Potency,[9],active: 1.54 µM
same,Potency,[4],"inconclusive: 54.5 µM [cytotoxic, partial curve, poor fit]"
same,Potency,[6],"inconclusive: 6.86 µM [inhibitor, full curve]"
Oc1cccc(-c2c3nc(c(-c4cccc(O)c4)c4ccc([nH]4)c(-c4cccc(O)c4)c4nc(c(-c5cccc(O)c5)c5ccc2[nH]5)CC4)C=C3)c1,Potency,[1],active: 7.5 µM
same,Potency,[7],inconclusive: 29.8 µM [inhibitor]
same,Potency,[9],"inconclusive: 23.7 µM [inhibitor, partial curve, poor fit]"
same,Potency,[3],"inconclusive: 10.6 µM [cytotoxic, partial curve, poor fit]"
same,Potency,[6],active: 16.8 µM
CCC(C)c1cc([N+](=O)[O-])cc([N+](=O)[O-])c1OC(=O)OC(C)C (configuration not stated),Potency,[1],"inconclusive: 54.5 µM [cytotoxic, partial curve]"
same,Potency,[2],active: 38.6 µM
same,Potency,[8],"inconclusive: 68.6 µM [cytotoxic, single point]"
CN1C(=O)N(c2ccccc2Br)Cc2cnc(Nc3ccc4c(c3)OCC(CO)O4)nc21 (configuration not stated),Potency,[1],"inconclusive: 68.6 µM [cytotoxic, single point]"
O=[N+]([O-])c1cc(N(CCO)CCO)ccc1NCCO,Potency,[1],"inconclusive: 43.2 µM [cytotoxic, partial curve] and inconclusive: 48.6 µM [cytotoxic, partial curve]"
same,Potency,[2],"inconclusive: 27.3 µM [inhibitor, full curve, poor fit]"
same,Potency,[9],"inconclusive: 30.6 µM [inhibitor, partial curve]"
same,Potency,[3],"inconclusive: 27.3 µM [cytotoxic, partial curve] and inconclusive: 54.5 µM [cytotoxic, partial curve]"
same,Potency,[8],"inconclusive: 54.4 µM [cytotoxic, partial curve]"
same,Potency,[4],"inconclusive: 54.4 µM [cytotoxic, partial curve]"
N#CCc1ccc(Cl)cc1Cl,Potency,[1],inactive
O=C1OC2(c3ccc(O)cc3Oc3cc(O)ccc32)c2ccccc21,Potency,[1],"inconclusive: 34.4 µM [rising, partial curve] and inconclusive: 26.6 µM [rising, partial curve]"
same,Potency,[7],"inconclusive: 16.8 µM [inhibitor, partial curve]"
same,Potency,[3],inactive
